Out of some 44,000 compounds screened, about 340 (0.77%) were called active. Inconclusive results (about 5%) are left out. Calls come from the whole dose curve; as a rule, active = well fitted inhibition curve with a large enough effect; inconclusive = small, poorly fitted or top-dose-only effect; inactive = flat fitted curve, though single readings scatter. The list shows a part of the results.
experiment: Acumen qHTS Assay for Inhibitors of the mTORC1 Signaling Pathway in MEF (Tsc2-/-, p53-/-) Cells: Sytravon; settings: phospho-rpS6 immunofluorescence/PI, 24 h; series mostly up to 38.3 µM; activity change, negative = inhibition: at the top concentration;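 note: plate controls were DMSO for no effect and rapamycin for full effect; nearly all actives have a fitted effect of over 50% in size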
Procedure, shortened: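 Immunofluorescence of rpS6 phosphorylation in Tsc2-/-, p53-/- MEFs after 24 h compound exposure, normalized to propidium iodide signal. Activity is expressed as % positive cells, thresholded with 7.5 nM rapamycin.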

Row | SMILES | activity change, negative = inhibition
1 | O=C(NCc1ccccc1)c1ccc(CS(=O)(=O)c2c(Cl)cccc2Cl)o1 | inactive: 2.62%
2 | Cc1ccc(NC(=O)Cn2nc(C)c3nn(-c4ccc(Cl)cc4)c(C)c3c2=O)cc1F | inactive: 11.4%
3 | COc1ccc(N2CCN(C(=O)CSc3nc(-c4ccccc4)no3)CC2)cc1 | inactive: 10.1%
4 | COc1ccc(CNC(=O)c2cnn(-c3ccccc3)c2-n2cccc2)cc1OC | inactive: -22.1%
5 | COc1ccc(-c2n[nH]c3c2C(c2ccccn2)N(C)C3=O)cc1 (stereo not drawn) | inactive: -2.1%
6 | COc1ccc(-n2nc3c(N4CCC(C(=O)NC5CCCCC5)CC4)nnc(C)c3c2C)cc1 | inactive: 0.767%
7 | CCOc1ccc(OCC)c(NC(=O)CN(C)S(=O)(=O)c2ccc3[nH]c(=O)oc3c2)c1 | inactive: 0%
8 | CCOC(=O)c1[nH]c(C)c(CCC(=O)N2CCN(c3cc(C)ccc3C)CC2)c1C | inactive: 0%
9 | Cc1ccc2oc(=O)c3cnn(CC(=O)N4CCN(c5cccc(Cl)c5)CC4)c3c2c1 | inactive: -11.2%
10 | Cc1cccc(C(=O)Nc2ccc3nc(SCC(=O)N4CCCC4)sc3c2)c1 | inactive: -5.47%
11 | O=C(CSc1nc(=O)[nH]c2c1CCC2)Nc1cc(C(F)(F)F)ccc1Cl | inactive: -1.15%
12 | Cc1cc(C(=O)NCCc2ccc(Cl)cc2)c2c(C)nn(-c3ccccc3)c2n1 | inactive: 3.72%
13 | COc1cc(CNC(=O)c2ccc(NC(=O)N3CCCCc4ccccc43)cc2)cc(OC)c1OC | inactive: -24%
14 | CCc1ccccc1NC(=O)C1CCCN(S(=O)(=O)c2ccc3[nH]c(=O)ccc3c2)C1 (stereo not drawn) | inactive: 1.39%
15 | Cc1ccc(OCC(=O)NCC(=O)OCc2cc(=O)n3nc(CC(C)C)sc3n2)cc1 | inactive: -19.4%
16 | O=C(c1cccs1)N1CCCc2cc(NS(=O)(=O)c3cc(F)ccc3F)ccc21 | inactive: 2.1%
17 | O=C(NCCc1ccc(Cl)cc1)c1cnc2sc(N3CCCC3)nn2c1=O | inactive: -3.61%
18 | CC(=O)c1ccc(NC(=O)C2CCN(S(=O)(=O)c3c(C)noc3/C=C/c3ccc(C)cc3)CC2)cc1 | inactive: 0.666%
19 | COc1ccc(CNC(=O)CN2C(=O)COc3ccccc32)c(OC)c1 | inactive: 0.289%
20 | Cc1ccc2nc(NC(=O)CSc3cc(C)[nH]c(=O)n3)sc2c1 | inactive: 2.96%
21 | Oc1ccccc1-c1nc2cnccn2c1Nc1ccc(Cl)cc1 | inactive: 0.505%
22 | COc1ccc(-c2nn3c(-c4ccccc4)nnc3c3ccccc23)cc1 | inactive: 1.74%
23 | CCOc1ccc(CNC(=O)CCCn2c(=O)c3cccn3c3cccnc32)cc1 | inactive: -14.2%
24 | O=S(=O)(NCCc1csc(-c2cccc(F)c2)n1)c1cc(F)ccc1F | inactive: -8.82%
25 | Cc1ccccc1Cn1c(SCc2ccc(C(=O)N3CCCCC3)cc2)nc2ccncc21 | inactive: 0.229%

Row | SMILES | activity change, negative = inhibition
26 | CCCOc1ccc(OC(=O)c2ccc(-c3ccc(CCC)cn3)cc2)cc1 | inactive: 3.18%
27 | COc1ccc(CCNC(=O)c2cc(Nc3ccccc3)nc3ccccc23)cc1OC | inactive: 1.08%
28 | O=C1CCc2cc(S(=O)(=O)NCc3ccccc3)cc3c2N1CC3 | inactive: -0.204%
29 | COc1cc(NC(=O)CCNC(=O)Cn2ccc3ccccc3c2=O)cc(OC)c1OC | inactive: -8.53%
30 | COC(=O)c1c(NC(=O)CCCOc2ccc(C)cc2)sc2c1CCCC2 | inactive: -3.38%
31 | CCn1c(C(=O)Nc2ccccc2C(=O)OC)cc2sc(Cl)cc21 | inactive: -1.74%
32 | Cc1nc2c(c(C)nn2-c2ccccc2)c(C)c1CCC(=O)Nc1ccccc1 | inactive: -8.33%
33 | Cc1ccc(NC(=O)Cn2c(=O)n(Cc3ccc(F)cc3)c(=O)c3cccnc32)cc1C | inactive: -0.3%
34 | O=C(Nc1ccc(S(=O)(=O)N(Cc2ccccc2)c2ccccc2)cc1)c1ccccc1F | inactive: -6.24%
35 | CCCn1ccc2c(OCC(=O)Nc3ccccc3C(=O)OCC)cccc2c1=O | inactive: -8.68%
36 | O=C(CCCCn1c(=O)c2ccccc2n(Cc2ccc(F)cc2Cl)c1=O)NCCc1ccc(Cl)cc1 | inactive: -16.3%
37 | COC(=O)c1ccccc1NC(=O)CCCn1c(C)c2cnn(-c3ccccc3)c(=O)c2c1C | inactive: -16.6%
38 | COc1ccccc1CNC(=O)Cc1c(C)c2cc3c(C)coc3c(C)c2oc1=O | inactive: -0.11%
39 | COc1ccc(CNC(=O)CC(C)CC2=NS(=O)(=O)c3ccccc3N2)cc1 (stereo not drawn) | inactive: 0.34%
40 | Cc1ccccc1Cn1c(=O)n(Cc2ccco2)c(=O)c2sc3ccccc3c21 | inactive: -0.26%
41 | CCOc1ccc(S(=O)(=O)Nc2ccc3c(c2)CCCN3C(=O)c2cccs2)cc1 | inactive: 0%
42 | CCOc1ccc(CCNC(=O)C2Cc3ccccc3N2C(=O)CC)cc1 (stereo not drawn) | inactive: 0%
43 | CCOC(=O)c1ccc(Nc2c(-c3ccc(OC)cc3)nc3nc[nH]n23)cc1 | inactive: -0.645%
44 | CCC(=O)N1CCc2cc(CNC(=O)Nc3cc(OC)c(OC)c(OC)c3)ccc21 | inactive: -7.05%
45 | CCN(CC)C(=O)C1=C(C)Nc2nc3ccccc3n2C1c1ccccc1F (stereo not drawn) | inactive: 1.4%
46 | CCOC(=O)c1cc2c(=O)n3ccccc3nc2n(CCCOC)c1=NC(=O)c1c(-c2c(F)cccc2Cl)noc1C | inactive: 3.1%
47 | O=C(Cc1ccc(NC(=O)N2CCCCc3ccccc32)cc1)NCc1cccc(Br)c1 | inactive: -11.5%
48 | Cc1cccc(N2CCN(C(=O)Cn3c(C)c4cnn(-c5ccccc5)c(=O)c4c3C)CC2)c1C | inactive: 5.05%
49 | COc1ccc(CNC(=O)C(=O)NCC(c2ccco2)S(=O)(=O)c2cccs2)cc1 (stereo not drawn) | inactive: 1.86%
50 | CCCCn1c(SCc2ccccc2C)nc2ccsc2c1=O | inactive: 6.67%

Row | SMILES | activity change, negative = inhibition
51 | Cc1nnc(SCc2cc(=O)c3cc(F)ccc3[nH]2)n1C | inactive: 4.86%
52 | Cc1ccc(NC(=O)c2ccc3c(O)c(S(=O)(=O)c4ccc(Cl)cc4)c(=O)[nH]c3c2)cc1 | inactive: -6.49%
53 | CCOC(=O)C1CCCN(C(=O)Cn2ncc3c(C)n(Cc4ccc(Cl)cc4)c(C)c3c2=O)C1 (stereo not drawn) | inactive: -0.842%
54 | Cc1ccc(NS(=O)(=O)c2ccc3c(c2)CCN3C(=O)C2CC2)c(C)c1 | inactive: 0.917%
55 | CC1=C(C#N)C(NC(=O)c2ccccc2)(C(F)(F)F)C(=O)N1 (stereo not drawn) | inactive: -1.95%
56 | C=C(C)Cn1c(SCC(=O)c2ccc(Br)cc2)nc2sc3c(c2c1=O)CCCC3 | inactive: -2.13%
57 | CC(C)c1ccccc1NC(=O)C(Cc1c[nH]c2ccccc12)NC(=O)OC(C)(C)C (stereo not drawn) | inactive: -12.8%
58 | Cc1ccc(S(=O)(=O)c2nc(-c3cccs3)oc2SCc2ccc(F)cc2)cc1 | inactive: -0.348%
59 | COc1ccc(NC(=O)c2ccc(NC(=O)N3CCSc4ncccc43)cc2)cc1 | inactive: -9.97%
60 | COCCn1c(CNC(=O)c2cccc(C)c2)nc2cccnc21 | inactive: 0.0882%
61 | COCCNC(=O)C1CCN(Cc2cc3ccccc3n2Cc2ccc(C)cc2)CC1 | inactive: -1.01%
62 | COc1ccccc1NC(=O)C1=C(C)Nc2nc(SCc3ccccc3)nn2C1c1cccc(O)c1 (stereo not drawn) | inactive: -2.17%
63 | COc1ccc(NC(=O)c2nnn(Cc3nc(-c4cc(OC)c(OC)c(OC)c4)oc3C)c2C)cc1Cl | inactive: -9.12%
64 | COc1ccccc1CNC(=O)c1ccc2[nH]c(C)c(C)c2c1 | inactive: -1.17%
65 | O=C(COc1ccc(F)cc1)Nc1nnc(S(=O)(=O)N2CCCC2)s1 | inactive: 4.44%
66 | COc1ccc(OC)c(NS(=O)(=O)c2ccc(-n3cccn3)cc2)c1 | inactive: -12.2%
67 | CCCCNC(=O)C(CC)Sc1nc2ccccc2c(=O)n1Cc1ccco1 (stereo not drawn) | inactive: -0.0875%
68 | COc1cc(NC(=O)C2CCN(S(=O)(=O)Cc3ccccc3)CC2)c(OC)cc1Cl | inactive: 2.05%
69 | COCCNC(=O)c1sc2ncccc2c1-n1c(C)ccc1C | inactive: -1.27%
70 | CCC(C)n1c(=O)c2sccc2n2c(CCCC(=O)NCc3ccccc3Cl)nnc12 (stereo not drawn) | inactive: 5.33%
71 | Cc1ccc(C(=O)c2sc(Nc3ccccc3)c(S(=O)(=O)c3ccccc3)c2N)c(C)c1 | inactive: -16.2%
72 | CCOC(=O)c1cccc(NC(=O)Cn2c(=O)c3cccn3c3ccccc32)c1 | inactive: -19.8%
73 | Cc1cccc(N(C)S(=O)(=O)c2nnc(NC(=O)c3cccs3)s2)c1 | inactive: 7.64%
74 | Cc1cc(C)n2nc(CNC(=O)c3c(F)cccc3F)nc2n1 | inactive: -4.66%
75 | Cc1ccc(-c2cn3cccnc3n2)cc1NC(=O)Nc1ccc(F)cc1 | inactive: -0.846%

Row | SMILES | activity change, negative = inhibition
76 | COc1ccc2c(c1)c(=O)c(S(=O)(=O)c1ccc(F)cc1)cn2Cc1ccccc1Cl | inactive: -9.29%
77 | CC(C)(C)OC(=O)N1CCC(c2c(C(=O)N3CCN(c4ccccn4)CC3)cnn2-c2ccc(F)cc2)CC1 | inactive: 5.89%
78 | COCCNC(=O)CN1C(=O)c2cccnc2Sc2ccccc21 | inactive: -10.1%
79 | O=C(Cn1ncc2c1-c1ccccc1OC2)N1CCN(c2ccccc2)CC1 | inactive: -3.67%
80 | COc1cccc2c(C)cc3nnc(SCC(=O)Nc4ccc(C)cc4)n3c12 | inactive: -0.1%
81 | O=C(c1ccc2c(c1)OCO2)c1cn(Cc2ccc(Cl)cc2)c2ccc(F)cc2c1=O | inactive: -6.82%
82 | CCCCOc1ccc(C(=O)N2CCCCC2CCN2CCOCC2)cc1 (stereo not drawn) | inactive: -1.73%
83 | CC1CCC(NC(=O)c2ccc(CS(=O)(=O)c3ccc(Cl)cc3)o2)CC1 (stereo not drawn) | inactive: -9.93%
84 | CCN(CC)S(=O)(=O)c1ccc(C(=O)NCCSc2c(-c3ccc(F)cc3)[nH]c3ccccc23)cc1 | inactive: 5.98%
85 | CC(=O)c1ccc(NC(=O)CSc2nc(-c3ccc(C)cc3)nc3c2c(=O)n(C)c(=O)n3C)cc1 | inactive: 12.2%
86 | CCn1c(=O)cc(OCC(=O)N2CCN(c3ccc(C)cc3)C(C)C2)c2ccccc21 (stereo not drawn) | inactive: 0.604%
87 | CCC(=O)Nc1ccc2nc(SCCOc3ccc(C)cc3OC)sc2c1 | inactive: 0%
88 | Cc1cc(Cl)ccc1OCC(=O)N(Cc1sccc1C)C1CCS(=O)(=O)C1 (stereo not drawn) | inactive: 5.53%
89 | COc1ccc(CNC(=O)c2cnc(N(C)C)nc2)cc1 | inactive: 16.9%
90 | CCCOc1cccc(C(=O)N(Cc2sccc2C)C2CCS(=O)(=O)C2)c1 (stereo not drawn) | inactive: -6.13%
91 | CC(C)OCCCNC(=O)CN1C(=O)c2cccnc2Sc2ccccc21 | inactive: -10.6%
92 | O=C(Cn1cc(SCc2c(F)cccc2Cl)c2ccccc21)N1CCCCC1 | inactive: -22.5%
93 | Cn1c(=O)n(Cc2ccccc2)c(=O)c2c1nc1n2CCN1c1ccccc1 | inactive: 5.08%
94 | CCN(CC)CCNC(=O)CN1N=C(c2ccc(OC)cc2)CCC1=O | inactive: -0.437%
95 | Cc1cccn2cc(-c3cccc(NC(=O)C(C)C)c3)nc12 | inactive: -11.9%
96 | CCN(CC)CCNC(=O)C(=O)NCC(c1ccc2c(c1)OCO2)N1CCOCC1 (stereo not drawn) | inactive: -2.29%
97 | COCc1cc(C)nc2c1C(=O)NC(c1ccc(C)cc1)N2Cc1ccccc1 (stereo not drawn) | inactive: -11.2%
98 | O=C(CSc1cn(CC(=O)N2CCCCC2)c2ccccc12)NCc1ccccc1 | inactive: 3.41%
